The source gives no read counts; variants with many changes may rest on few reads.

B1: CPEB3 Ribozyme (parent)
chain: UAACAGGGGGCCACAGCAGAAGCGUUCACGUCGCAGCCCCUGUCAGAUUCUGGUGAAUCUGCGAAUUCUGCUGUAUAUCUC

Variants of B1 are the subject of the data set. Nature of the data set: self-cleavage, relative activity (ratio to wild type); higher = more cleavage; in vitro, sequencing. Put shortly: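 Libraries of CPEB3 self-cleaving ribozyme mutants came from rounds of error-prone PCR and carried barcodes, which DNA sequencing matched to variants. In vitro transcription used T7 RNA polymerase at 37°C for 5 hours, with a further 15 min in DNase I before EDTA stopped the reaction; the ribozymes cleaved during both steps. The RNA was reverse transcribed with template switching and sequenced on Illumina. Relative activity is the cleaved/total read fraction of a variant divided by that of the unmutated ribozyme, averaged over three batches with at least 5 reads.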
With A15U U25C U43C, the self-cleavage came out at 0.23.

Turning to A15U U31C G42A A75C, the self-cleavage turned out to be 0.24. For the variant A15U A28U U43C U54G U72A, the self-cleavage is 0.11.

In the case of A15U U26G A35G A75G, the self-cleavage turned out to be 0.38.

A18G A20G U26A A28G A64U: the self-cleavage was 0.16. Take A15U G52C U54A A75U: the self-cleavage was 1.04. For the variant A15U G30U U60A, the self-cleavage worked out at 0.13. With C17U G19A C39U U54A A57G U72C the figure was 0.05; with A18C U25C U26C U43C G52C, 0.8. Regarding A15U U25A U54G A57G U80C, the self-cleavage is 0.38. Turning to G16C A20G U43A U60A A64U U78C, the self-cleavage amounted to 0.13.

With G16A C27U G33A A56G U78C, the self-cleavage worked out at 0.32. In the case of A18C U43A A64G, the self-cleavage stood at 0.17. With G16C U41A A65G the figure was 0.34; with A18C G30A U48G, 0.27. Turning to A15U U26C U51C U67C U78C, the self-cleavage came to 0.08. For the variant A15U A28U U51G U76A, the self-cleavage came to 0.2. With A15U A21G G24A U25C, the self-cleavage was determined as 0.16. As for A15U C32U A35G C44U U54C U72C U80C, the figure is 0.29; as for C17G A28G A56G U74C U80C, 0.06; as for C17U A21G U60A A65G C71U U78C, 0.07. In the case of A15U U48C U60C A64G, the self-cleavage came to 0.08. Take C17G A45G A65G: the self-cleavage is 0.05. With A18C C40U G55U U69C the figure was 0.29; with A15U A20U A35G G73A, 1.13; with G16A U69A U76G, 0.19. As for A15U U48C U74C, the self-cleavage is 0.68. As for A15U U51A U54C A56G A65G, the figure is 0.27; as for C17U G46A C62U, 0.09. With G16C U26C G63A U78A, the self-cleavage turned out to be 0.14. Consider G16C A47G U66C U69C, for which the self-cleavage stood at 0.1. G16A U31G U54C U60C: the self-cleavage stood at 0.14. For A15U C38A U60A U69A, the self-cleavage was 0.15. Turning to A15U A47G A75U U80C, the self-cleavage came out at 0.89. Turning to A18C A20G U25C U51C A56G, the self-cleavage came to 0.36. On to G16A A28C A45G, for which the self-cleavage was 0.05. For the variant A15U A57U U76C A77U, the self-cleavage was determined as 0.34. Turning to A15U U54A U72C, the self-cleavage was 1. As to G16U A47G G63U, the self-cleavage came to 0.22. As to A15U U31C C44A, the self-cleavage was 0.12.

Regarding A15U U26C A28G U49A, the self-cleavage was 0.15.

As to G16C U41C U78C, the self-cleavage came out at 0.19. Turning to A15U A45G U49C U78C, the self-cleavage came out at 0.15. Consider A15U A21G A64G U67C U76A, for which the self-cleavage was 0.19.

For the variant A18G A20G A35G U43C U74A A77U, the self-cleavage was 0.55.

In the case of A15U A20U A64G A77U, the self-cleavage turned out to be 0.08. Turning to A15U A47U U54C, the self-cleavage amounted to 0.15. As for A15U U31C U66A, the self-cleavage worked out at 0.09. With A15U U26C A45G U48C G53A, the self-cleavage stood at 0.12. As to G16U C34A U43C U67A, the self-cleavage is 0.07. As for A15U A47U U48C A57U U58A, the figure is 0.13; as for A18C A57G A64G U69C U72A U80C, 0.08; as for A15U G30A C32U U41G G46U A65G U69C, 0.04. On to A18C A35G U41A U60C, for which the self-cleavage was 0.06. Take A15U A77U U80A: the self-cleavage is 0.87. For A15U A20G U26G U41A U49C A57G, the self-cleavage came out at 0.04. Turning to A18C G36C U48C U78C, the self-cleavage came out at 0.17. Regarding C17U A47G U72C, the self-cleavage was found to be 0.39. In the case of G16A U26C C34U A35G U60A A64G U69C, the self-cleavage amounted to 0.05.

A18C A28G U74C: the self-cleavage was determined as 0.31. With A18C U26C A35G U80G, the self-cleavage turned out to be 0.52.

As for G16U A20G U25C, the self-cleavage stood at 0.25.

For A15U A35U U54C U69A U72C, the self-cleavage amounted to 0.11. In the case of C17G U26G A47G A75U, the self-cleavage was determined as 0.43. With A15U U51C A64C the figure was 0.14; with A15U A75U A77G, 1.09. As to A18C U31C A47U U49C A57U, the self-cleavage was 0.05. With A18C U26A U43C U80A the figure was 0.05; with C17U A21G U67C, 0.08. For the variant G16A G42A U72G, the self-cleavage is 0.11.

As to C17A U49G A75U, the self-cleavage was 0.13.

Turning to A15U U51C U60A, the self-cleavage was 0.46.

With A18C A20U U25C A28U C59A A77G, the self-cleavage was 0.14. For G16C C27A A64U, the self-cleavage is 0.17. With C17A U31C U43A U72C the figure was 0.18; with A15U U25A A28G A47G U54G U66C, 0.07. On to C17G A18G U25A C27U U76C, for which the self-cleavage came to 0.04. In the case of C17U A21G G52A, the self-cleavage amounted to 0.15.

In the case of G16A U31C G70C A75G, the self-cleavage is 0.1. Regarding A15U U25C A45U G53C U60G, the self-cleavage is 0.18. Regarding A18C C40U C50A G55U U69C U78A, the self-cleavage stood at 0.1. As for A15U U69C G70A U78A, the figure is 0.32; as for A15U U74C U80C, 1.2. As for A18C A20U C79U, the self-cleavage was 0.21.

Regarding C17G C32U C37A U41C U58C U72C, the self-cleavage came to 0.26. Take A15U A21G A28G U49C A57G: the self-cleavage stood at 0.07. As for C17A A18G A35U U54A A57G, the figure is 0.09; as for C17G A21U A35U U67A, 0.22; as for A15U G42A G61C U66C U74A, 0.12. In the case of C17U C27A U60C G73C, the self-cleavage came out at 0.06. With A15U U31C C40U U41C U78C C81U the figure was 0.62; with A18C U26A G52C A64G U76C U80A, 0.23. Take G16U A28G U31C U41C A56U U66A: the self-cleavage is 0.12.

As to A15U U25C A64G, the self-cleavage stood at 0.19. For A18G A20G C23G U25C U72C U80C, the self-cleavage was found to be 0.09. As for C17U A45U U48C U58C, the figure is 0.13; as for A15U A21G U78C, 0.52.

With A15U A28G U31C G46C U69A U80C, the self-cleavage amounted to 0.04. Take A15U U26C A45G A47G U67C: the self-cleavage stood at 0.19. For A18C A28G U69C, the self-cleavage turned out to be 0.08.

For A18C U31C A45G A65G C79U, the self-cleavage is 0.06. With C17G A18G A35U U54G U72C the figure was 0.05; with A15U C29A A45U U58C U66C U74C, 0.13. With A15U A21C U54C U60C A64U the figure was 0.19; with G16U C27A A57G A64U, 0.05. As for A18C A28G A45U, the figure is 0.38; as for A18C A21G G42U U60C U69A U74C, 0.07. On to A18G A20G G36U U43C G46A U76C, for which the self-cleavage was found to be 0.19. As for C17U U31A A35G A56C, the figure is 0.55; as for A18C C29U U41A U72C, 0.07. A18C U26A C62A U67A C68U U76C U80A: the self-cleavage amounted to 0.06. With A15U A35G A56G U60C the figure was 0.97; with A15U U25C U26C U51C A65G U72C, 0.07.

With A15U U60C U78A, the self-cleavage is 0.17. Turning to A18C U26C U41C, the self-cleavage was 0.71. For the variant A15U U26C U60G U72A, the self-cleavage is 0.26. Take G16C U49C A64G U80C: the self-cleavage was determined as 0.07. As to A15U G24A A57G, the self-cleavage turned out to be 0.2. As for A18C A21G U41C U43A C50G, the self-cleavage is 0.03. Regarding A15U G33A U69C U76A, the self-cleavage was 0.15. A15U A64G U69A: the self-cleavage worked out at 0.1. For the variant C17U A21G U78C U80C, the self-cleavage came out at 0.24.

Consider A15U G16A A20U U51C A56G G70A, for which the self-cleavage was found to be 0.04. Consider A18C U49A U58A U67C, for which the self-cleavage worked out at 0.09. A15U U25C U41A A45U U54C: the self-cleavage was 0.13. With A15U U31C U43C A47U U69A, the self-cleavage worked out at 0.12. In the case of C17U A21G U51C A64G, the self-cleavage stood at 0.1.

A15U A35U U51A U54A U60C U72C: the self-cleavage was 0.21. With A15U A28U G46U the figure was 0.14.

With A15U U43C A56U A65G U74C A77G, the self-cleavage was 0.27. With G16A U72A U78C U80A the figure was 0.09; with A18C C23U C44A U72C, 0.02; with A15U U43C U74A, 0.54. On to G16A U41A U66C, for which the self-cleavage is 0.11. As for A15U A20U U31C U43A U54C U60A, the self-cleavage is 0.12. As for A15U U25A U41C U80C, the figure is 0.23. In the case of A18G A20G U26G U43C U51A, the self-cleavage was 0.37. As for A15U A56U G63A, the figure is 0.3; as for G16C C34U U41A U54C U78A, 0.04.

Consider A15U A20G U41C U49C U72A, for which the self-cleavage is 0.11.

C17A A47U U60C C62U A75U: the self-cleavage worked out at 0.09. With C17A U26A U58G U60C U67C A77G U78C, the self-cleavage worked out at 0.15. For the variant A15U U25C A28G A57U U58A U72G C79U, the self-cleavage came to 0.03.

As to A15U A56G U69C, the self-cleavage was 0.22. In the case of G16A U25C U54C, the self-cleavage turned out to be 0.08. As to A15U A28G U67C, the self-cleavage amounted to 0.1. As for A15U A47G C50G A75G, the figure is 0.23; as for A15U A57G U78C, 0.63. As for A15U A21G U31C A47U U60G U74C, the figure is 0; as for A18C U26A U54C A64U U69C, 0.07; as for A18C A35G A45C U58A, 0.25.

With G16A C38U G42A A47U U51G, the self-cleavage is 0.16.

With A15U A47C U54C, the self-cleavage came to 0.09.

Consider C17U A18U U58C, for which the self-cleavage was determined as 0.15.

Regarding A18C U25A U43C A65C G73A, the self-cleavage was found to be 0.22. With C17U A18U U49C U51C U69C U72C U78C the figure was 0.09; with A15U U31C A57G U80C, 0.39.

Take A18C C40U G53U: the self-cleavage was 0.43. A18C G24A U31C U51C U72A A75G: the self-cleavage was found to be 0.15. For the variant C17U A35U A56U U60C U67C U72A, the self-cleavage worked out at 0.07. Regarding A15U C32U A35U, the self-cleavage was determined as 0.18. As to C17U U31C U60C, the self-cleavage amounted to 0.14. A18G A20G U26A U69C U78C: the self-cleavage was 0.89.

With A15U A35G G42A, the self-cleavage is 0.2. A18C A28G U49C U80C: the self-cleavage came out at 0.07. On to G16U A45U U67A, for which the self-cleavage came out at 0.14. On to G16A U41G U54C U76C, for which the self-cleavage is 0.15.

Values taken from the RNAGym collection of RNA variant scans (doi:10.1093/nar/gkz1192).
